A compilation of properties of binary mixtures (doi:10.1007/s10953-005-7692-y)
Some of these densities may be calculated back from excess volumes.

Experiment: xn = mol fraction of the nth substance listed
Settings: 298.15 K, 101 kPa

CCCCCO + CCCCCCCCn1cc[n+](C)c1.F[B-](F)(F)F
Settings	mass density [kg/m3]
x1 = 1	811

CCCCO + CCCCCCCCn1cc[n+](C)c1.F[B-](F)(F)F
Settings	mass density [kg/m3]
x1 = 1	805.7

CCCCCCCCn1cc[n+](C)c1.F[B-](F)(F)F + CCCCCO
Settings	mass density [kg/m3]
x1 = 0.0164	822.1
x2 = 0.1687	1080
x2 = 0.2297	1070.3
x2 = 0.3334	1051.8
x2 = 0.4551	1026.5
x2 = 0.4571	1026.1
x2 = 0.6203	983.4
x2 = 0.7016	957.2
x2 = 0.7415	942.6
x2 = 0.7662	933.2
x2 = 0.796	921
x2 = 0.8046	917.2
x2 = 0.8218	909.8
x2 = 0.8733	885.4
x2 = 0.9024	870.5
x2 = 0.9534	841.3
x2 = 0.9558	839.9
x2 = 0.9584	838.3

CCCCCCCCn1cc[n+](C)c1.F[B-](F)(F)F + CCCCO
Settings	mass density [kg/m3]
x1 = 0.0043	809.4
x1 = 0.0048	809.9
x2 = 0	1103.8
x2 = 0.0664	1096.3
x2 = 0.169	1083.1
x2 = 0.2135	1076.8
x2 = 0.3043	1062.8
x2 = 0.4537	1035
x2 = 0.4744	1030.6
x2 = 0.5726	1007
x2 = 0.6356	989.1
x2 = 0.7956	930.3
x2 = 0.8283	915.1
x2 = 0.8517	903.4
x2 = 0.8955	879.1
x2 = 0.9268	859.8
x2 = 0.9571	839.2
